# Source: patent US20210238308A1 (Chugai, published 2021)
# T1: PRYSPRY domain of mouse TRIM21 with N-terminal 6xHis tag (mouse)
# T1 construct: Expressed in E. coli; also called mTRIM21; mouse TRIM21.PRYSPRY
# T1 chain: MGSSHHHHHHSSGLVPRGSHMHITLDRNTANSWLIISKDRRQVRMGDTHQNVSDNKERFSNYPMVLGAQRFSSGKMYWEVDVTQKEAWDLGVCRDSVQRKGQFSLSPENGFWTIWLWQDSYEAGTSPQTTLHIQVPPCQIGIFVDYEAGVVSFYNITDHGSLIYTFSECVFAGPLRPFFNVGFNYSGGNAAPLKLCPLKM
# T2: PRYSPRY domain of human TRIM21 with N-terminal 6xHis tag (human)
# T2 construct: Expressed in E. coli; also called hTRIM21; human TRIM21.PRYSPRY
# T2 chain: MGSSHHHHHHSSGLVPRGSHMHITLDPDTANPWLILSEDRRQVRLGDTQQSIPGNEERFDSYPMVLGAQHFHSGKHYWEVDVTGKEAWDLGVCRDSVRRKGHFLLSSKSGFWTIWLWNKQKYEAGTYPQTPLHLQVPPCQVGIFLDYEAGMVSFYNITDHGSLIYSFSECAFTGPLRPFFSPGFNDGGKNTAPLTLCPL
# B1: MRAH-G1d/MRAL-KT0 L432I (antibody, human IgG1, kappa)
# heavy: QVQLQESGPGLVRPSQTLSLTCTVSGYSITSDHAWSWVRQPPGRGLEWIGYISYSGITTYNPSLKSRVTMLRDTSKNQFSLRLSSVTAADTAVYYCARSLARTTAMDYWGQGSLVTVSS[human IgG1 constant region with L432I (EU numbers) omitted here]
# light: DIQMTQSPSSLSASVGDRVTITCRASQDISSYLNWYQQKPGKAPKLLIYYTSRLHSGVPSRFSGSGSGTDFTFTISSLQPEDIATYYCQQGNTLPYTFGQGTKVEIKRTVAAPSVFIFPPSDEQLKSGTASVVCLLNNFYPREAKVQWKVDNALQSGNSQESVTEQDSKDSTYSLSSTLTLSKADYEKHKVYACEVTHQGLSSPVTKSFNRGEC
# notes: copies: 2 + 2
# B2: MRAH-G1d/MRAL-KT0 L432K (antibody, human IgG1, kappa)
# heavy: QVQLQESGPGLVRPSQTLSLTCTVSGYSITSDHAWSWVRQPPGRGLEWIGYISYSGITTYNPSLKSRVTMLRDTSKNQFSLRLSSVTAADTAVYYCARSLARTTAMDYWGQGSLVTVSS[human IgG1 constant region with L432K (EU numbers) omitted here]
# light: DIQMTQSPSSLSASVGDRVTITCRASQDISSYLNWYQQKPGKAPKLLIYYTSRLHSGVPSRFSGSGSGTDFTFTISSLQPEDIATYYCQQGNTLPYTFGQGTKVEIKRTVAAPSVFIFPPSDEQLKSGTASVVCLLNNFYPREAKVQWKVDNALQSGNSQESVTEQDSKDSTYSLSSTLTLSKADYEKHKVYACEVTHQGLSSPVTKSFNRGEC
# notes: copies: 2 + 2
# B3: MRAH-G1d/MRAL-KT0 L432M (antibody, human IgG1, kappa)
# heavy: QVQLQESGPGLVRPSQTLSLTCTVSGYSITSDHAWSWVRQPPGRGLEWIGYISYSGITTYNPSLKSRVTMLRDTSKNQFSLRLSSVTAADTAVYYCARSLARTTAMDYWGQGSLVTVSS[human IgG1 constant region with L432M (EU numbers) omitted here]
# light: DIQMTQSPSSLSASVGDRVTITCRASQDISSYLNWYQQKPGKAPKLLIYYTSRLHSGVPSRFSGSGSGTDFTFTISSLQPEDIATYYCQQGNTLPYTFGQGTKVEIKRTVAAPSVFIFPPSDEQLKSGTASVVCLLNNFYPREAKVQWKVDNALQSGNSQESVTEQDSKDSTYSLSSTLTLSKADYEKHKVYACEVTHQGLSSPVTKSFNRGEC
# notes: copies: 2 + 2
# B4: MRAH-G1d/MRAL-KT0 L432N (antibody, human IgG1, kappa)
# heavy: QVQLQESGPGLVRPSQTLSLTCTVSGYSITSDHAWSWVRQPPGRGLEWIGYISYSGITTYNPSLKSRVTMLRDTSKNQFSLRLSSVTAADTAVYYCARSLARTTAMDYWGQGSLVTVSS[human IgG1 constant region with L432N (EU numbers) omitted here]
# light: DIQMTQSPSSLSASVGDRVTITCRASQDISSYLNWYQQKPGKAPKLLIYYTSRLHSGVPSRFSGSGSGTDFTFTISSLQPEDIATYYCQQGNTLPYTFGQGTKVEIKRTVAAPSVFIFPPSDEQLKSGTASVVCLLNNFYPREAKVQWKVDNALQSGNSQESVTEQDSKDSTYSLSSTLTLSKADYEKHKVYACEVTHQGLSSPVTKSFNRGEC
# notes: copies: 2 + 2
# B5: MRAH-G1d/MRAL-KT0 L432P (antibody, human IgG1, kappa)
# heavy: QVQLQESGPGLVRPSQTLSLTCTVSGYSITSDHAWSWVRQPPGRGLEWIGYISYSGITTYNPSLKSRVTMLRDTSKNQFSLRLSSVTAADTAVYYCARSLARTTAMDYWGQGSLVTVSS[human IgG1 constant region with L432P (EU numbers) omitted here]
# light: DIQMTQSPSSLSASVGDRVTITCRASQDISSYLNWYQQKPGKAPKLLIYYTSRLHSGVPSRFSGSGSGTDFTFTISSLQPEDIATYYCQQGNTLPYTFGQGTKVEIKRTVAAPSVFIFPPSDEQLKSGTASVVCLLNNFYPREAKVQWKVDNALQSGNSQESVTEQDSKDSTYSLSSTLTLSKADYEKHKVYACEVTHQGLSSPVTKSFNRGEC
# notes: copies: 2 + 2
# B6: MRAH-G1d/MRAL-KT0 L432Q (antibody, human IgG1, kappa)
# heavy: QVQLQESGPGLVRPSQTLSLTCTVSGYSITSDHAWSWVRQPPGRGLEWIGYISYSGITTYNPSLKSRVTMLRDTSKNQFSLRLSSVTAADTAVYYCARSLARTTAMDYWGQGSLVTVSS[human IgG1 constant region with L432Q (EU numbers) omitted here]
# light: DIQMTQSPSSLSASVGDRVTITCRASQDISSYLNWYQQKPGKAPKLLIYYTSRLHSGVPSRFSGSGSGTDFTFTISSLQPEDIATYYCQQGNTLPYTFGQGTKVEIKRTVAAPSVFIFPPSDEQLKSGTASVVCLLNNFYPREAKVQWKVDNALQSGNSQESVTEQDSKDSTYSLSSTLTLSKADYEKHKVYACEVTHQGLSSPVTKSFNRGEC
# notes: copies: 2 + 2
# B7: MRAH-G1d/MRAL-KT0 L432S (antibody, human IgG1, kappa)
# heavy: QVQLQESGPGLVRPSQTLSLTCTVSGYSITSDHAWSWVRQPPGRGLEWIGYISYSGITTYNPSLKSRVTMLRDTSKNQFSLRLSSVTAADTAVYYCARSLARTTAMDYWGQGSLVTVSS[human IgG1 constant region with L432S (EU numbers) omitted here]
# light: DIQMTQSPSSLSASVGDRVTITCRASQDISSYLNWYQQKPGKAPKLLIYYTSRLHSGVPSRFSGSGSGTDFTFTISSLQPEDIATYYCQQGNTLPYTFGQGTKVEIKRTVAAPSVFIFPPSDEQLKSGTASVVCLLNNFYPREAKVQWKVDNALQSGNSQESVTEQDSKDSTYSLSSTLTLSKADYEKHKVYACEVTHQGLSSPVTKSFNRGEC
# notes: copies: 2 + 2
# B8: MRAH-G1d/MRAL-KT0 L432T (antibody, human IgG1, kappa)
# heavy: QVQLQESGPGLVRPSQTLSLTCTVSGYSITSDHAWSWVRQPPGRGLEWIGYISYSGITTYNPSLKSRVTMLRDTSKNQFSLRLSSVTAADTAVYYCARSLARTTAMDYWGQGSLVTVSS[human IgG1 constant region with L432T (EU numbers) omitted here]
# light: DIQMTQSPSSLSASVGDRVTITCRASQDISSYLNWYQQKPGKAPKLLIYYTSRLHSGVPSRFSGSGSGTDFTFTISSLQPEDIATYYCQQGNTLPYTFGQGTKVEIKRTVAAPSVFIFPPSDEQLKSGTASVVCLLNNFYPREAKVQWKVDNALQSGNSQESVTEQDSKDSTYSLSSTLTLSKADYEKHKVYACEVTHQGLSSPVTKSFNRGEC
# notes: copies: 2 + 2
# B9: MRAH-G1d/MRAL-KT0 L432V (antibody, human IgG1, kappa)
# heavy: QVQLQESGPGLVRPSQTLSLTCTVSGYSITSDHAWSWVRQPPGRGLEWIGYISYSGITTYNPSLKSRVTMLRDTSKNQFSLRLSSVTAADTAVYYCARSLARTTAMDYWGQGSLVTVSS[human IgG1 constant region with L432V (EU numbers) omitted here]
# light: DIQMTQSPSSLSASVGDRVTITCRASQDISSYLNWYQQKPGKAPKLLIYYTSRLHSGVPSRFSGSGSGTDFTFTISSLQPEDIATYYCQQGNTLPYTFGQGTKVEIKRTVAAPSVFIFPPSDEQLKSGTASVVCLLNNFYPREAKVQWKVDNALQSGNSQESVTEQDSKDSTYSLSSTLTLSKADYEKHKVYACEVTHQGLSSPVTKSFNRGEC
# notes: copies: 2 + 2
# B10: MRAH-G1d/MRAL-KT0 L432W (antibody, human IgG1, kappa)
# heavy: QVQLQESGPGLVRPSQTLSLTCTVSGYSITSDHAWSWVRQPPGRGLEWIGYISYSGITTYNPSLKSRVTMLRDTSKNQFSLRLSSVTAADTAVYYCARSLARTTAMDYWGQGSLVTVSS[human IgG1 constant region with L432W (EU numbers) omitted here]
# light: DIQMTQSPSSLSASVGDRVTITCRASQDISSYLNWYQQKPGKAPKLLIYYTSRLHSGVPSRFSGSGSGTDFTFTISSLQPEDIATYYCQQGNTLPYTFGQGTKVEIKRTVAAPSVFIFPPSDEQLKSGTASVVCLLNNFYPREAKVQWKVDNALQSGNSQESVTEQDSKDSTYSLSSTLTLSKADYEKHKVYACEVTHQGLSSPVTKSFNRGEC
# notes: copies: 2 + 2
# B11: MRAH-G1d/MRAL-KT0 L432Y (antibody, human IgG1, kappa)
# heavy: QVQLQESGPGLVRPSQTLSLTCTVSGYSITSDHAWSWVRQPPGRGLEWIGYISYSGITTYNPSLKSRVTMLRDTSKNQFSLRLSSVTAADTAVYYCARSLARTTAMDYWGQGSLVTVSS[human IgG1 constant region with L432Y (EU numbers) omitted here]
# light: DIQMTQSPSSLSASVGDRVTITCRASQDISSYLNWYQQKPGKAPKLLIYYTSRLHSGVPSRFSGSGSGTDFTFTISSLQPEDIATYYCQQGNTLPYTFGQGTKVEIKRTVAAPSVFIFPPSDEQLKSGTASVVCLLNNFYPREAKVQWKVDNALQSGNSQESVTEQDSKDSTYSLSSTLTLSKADYEKHKVYACEVTHQGLSSPVTKSFNRGEC
# notes: copies: 2 + 2
# Legend:
# Assay in all cases: SPR, Protein L capture
# [1] = target: T1, PRYSPRY domain of mouse TRIM21 with …
# human FcRn = target: T3, human FcRn (human, UniProt P55899 in part; P61769 in part, limits assumed)
# Sequence of human FcRn (P55899 24-290 limits assumed, form in doubt, chain 1 of 2): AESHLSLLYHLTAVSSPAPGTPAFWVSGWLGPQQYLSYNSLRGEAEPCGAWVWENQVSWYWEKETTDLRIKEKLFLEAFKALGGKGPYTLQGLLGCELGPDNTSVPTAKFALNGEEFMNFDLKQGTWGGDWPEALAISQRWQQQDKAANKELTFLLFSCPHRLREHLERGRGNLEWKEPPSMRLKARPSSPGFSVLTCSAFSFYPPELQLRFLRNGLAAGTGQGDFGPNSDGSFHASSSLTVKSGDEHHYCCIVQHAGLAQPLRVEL
# Sequence of human FcRn (P61769 21-119 limits assumed, form in doubt, chain 2 of 2, further chain): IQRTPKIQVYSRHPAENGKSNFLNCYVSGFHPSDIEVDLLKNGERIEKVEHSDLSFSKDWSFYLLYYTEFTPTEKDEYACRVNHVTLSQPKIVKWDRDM
# T3 construct: also called hFcRn
# [2] = target: T2, PRYSPRY domain of human TRIM21 with …
Binder,mTRIM21 binding level ratio (variant/control antibody) [1],hFcRn binding level ratio (variant/control antibody) (human FcRn),hTRIM21 binding level ratio (variant/control antibody) [2]
B1,2.29,0.59,0.657
B2,2.01,0,0.472
B3,2.15,0.75,1.1
B4,1.61,0.57,0.462
B5,2.01,0.02,1.21
B6,2.22,0.61,1.2
B7,2.16,0.03,0.67
B8,2.76,0.64,0.752
B9,2.67,0.17,0.848
B10,0.139,0.25,0.297
B11,0.695,0.43,0.673
